Laboratory results taken from US20150044216A1 (BIO THERA SOLUTIONS, published 2015).

What was measured:
VEGF [1] = molecular target: T1, VEGF (UniProt P15692-4 27-191, limits assumed); assay: cell-based or functional assay
T1 sequence (looked up): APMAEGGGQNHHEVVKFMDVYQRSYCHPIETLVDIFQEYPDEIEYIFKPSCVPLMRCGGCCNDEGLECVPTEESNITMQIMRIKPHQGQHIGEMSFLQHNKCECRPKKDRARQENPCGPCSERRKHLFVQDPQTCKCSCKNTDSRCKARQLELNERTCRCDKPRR

[2] = molecular target: T2, EGFR antigen (coated on ELISA plate) (UniProt P00533 partial chain, limits assumed); assay: ELISA affinity constant (Kaff), antigen coated at 1, 2 and 4 µg/mL
T2 construct: The construct of the coated antigen is not described

VEGF [3] = molecular target: T1, VEGF; assay: as above

inhibition of VEGF-stimulated HUVEC growth (CCK-8), EC50 (VEGF [1]): 0.025 µg/mL
potency in inhibition of VEGF-stimulated HUVEC growth against Bevacizumab (VEGF [1]): ~5 fold
Ka [2]: 5.7e+08 M⁻¹
Ka (VEGF [3]): 2.53e+08 M⁻¹
B1: Antibody 906 (bispecific antibody, human IgG1, kappa)
light: DIQMTQSPSSLSASVGDRVTITCQASQDISNYLNWYQQKPGKAPKLLIYDASNLETGVPSRFSGSGSGTDFTFTISSLQPEDIATYFCQHFDHLPLAFGGGTKVEIKRTVAAPSVFIFPPSDEQLKSGTASVVCLLNNFYPREAKVQWKVDNALQSGNSQESVTEQDSKDSTYSLSSTLTLSKADYEKHKVYACEVTHQGLSSPVTKSFNRGEC
heavy: QVQESGPGLVKPSETLSLTCTVSGGSVSSGDYYWTWIRQSPGKGLEWIGHIYYSGNTNYNPSLKSRLTISIDTSKTQFSLKLSSVTAADTAIYYCVRDRVTGAFDIWGQGTLVTVSS[human IgG1 constant region not shown]GGGGSGGGGSGGGGSEVQLVESGGGLVQPGGSLRLSCAASGYDFTHYGMNWVRQAPGKCLEWVGWINTYTGEPTYAADFKRRFTFSLDTSKSTAYLQMNSLRAEDTAVYYCAKYPYYYGTSHWYFDVWGQGTLVTVSSGGGGSGGGGSGGGGSGGGGSDIQLTQSPSSLSASVGDRVTITCSASQDISNYLNWYQQKPGKAPKVLIYFTSSLHSGVPSRFSGSGSGTDFTLTISSLQPEDFATYYCQQYSTVPWTFGCGTKVEIK
notes: also called anti-EGFR and anti-VEGF bispecific antibody
